{"source": "PubChem BioAssay AID504832", "about": "(National Center for Advancing Translational Sciences (NCATS), 2011)", "note": "Hit rate of the full screen: of about 310,000 compounds, about 18,000 (5.8%) were called active. The inconclusive results got no clear call from the source; some entries with a clear call stand among them for comparison. The call rests on the fitted dose curve; in most records, active means well fitted inhibition curve with a large enough effect; inconclusive means small, poorly fitted or top-dose-only effect, or another doubt; inactive means no such curve, though single readings can be large or run the other way. No potency is given beside an inconclusive call; the fits are too rough. On the % scale 0 is the no-effect control and ±100 the full control effect; potency means the concentration at half of the fitted maximal effect; tags describe the fitted curve by direction and shape.", "data": [{"assay": "Primary qHTS for delayed death inhibitors of the malarial parasite plastid, 48 hour incubation", "conditions": "P. falciparum luciferase growth in erythrocytes; series mostly up to 28.7 µM; activity change, negative = inhibition: at the top concentration", "procedure,_shortened": "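Here the parasites carry a stable luciferase gene and grow inside erythrocytes in Albumax-based RPMI medium with compound for one erythrocytic cycle. Activity is scored as loss of luminescent signal.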", "values": [{"smiles": "C=CCc1ccccc1OCC(O)CN1CCN(C(=O)OCC)CC1", "note": "(centres undefined)", "Potency": "inconclusive [inhibitor, partial curve, poor fit]"}, {"smiles": "O=C(CCN1CCN(c2ccccc2F)CC1)Nc1cccc(F)c1", "activity change, negative = inhibition": "inactive: -13.1%"}, {"smiles": "Cc1cc(-c2ccc(C(C)C)c(S(=O)(=O)N3CCN(c4ccccc4)CC3)c2)on1", "Potency": "inconclusive [inhibitor, partial curve]"}, {"smiles": "COc1ccc(-n2c(C)cc(/C=C3\\SC(=S)N(Cc4ccco4)C3=O)c2C)cc1", "Potency": "inconclusive [inhibitor, single point]"}, {"smiles": "O=C(Nc1ccc(Br)cc1)c1cccc(-n2cnnn2)c1", "activity change, negative = inhibition": "inactive: -94.2%"}, {"smiles": "COc1ccc(C2C(C(=O)N3CCN(c4ccccc4)CC3)c3ccccc3C(=O)N2C)cc1", "note": "(centres undefined)", "Potency": "inconclusive [inhibitor, single point]"}, {"smiles": "Cc1ccccc1Cn1c(Cc2ccccc2)nc2ccccc21", "Potency": "inconclusive [inhibitor, partial curve, poor fit]"}, {"smiles": "O=C(CNCc1ccccn1)Nc1ccc([N+](=O)[O-])cc1C(=O)Nc1ccccc1F", "Potency": "inconclusive [inhibitor, partial curve]"}, {"smiles": "CN(C(=O)COC(=O)c1ccc(Cl)c(S(=O)(=O)N2CCCCC2)c1)C1(C#N)CCCCC1", "Potency": "inconclusive [inhibitor, single point]"}, {"smiles": "CC(C)CCN1C(Nc2ccccc2)=NC[C@@H]1CC(C)C", "activity change, negative = inhibition": "inactive: -15.4%"}, {"smiles": "Cc1ccc(S(=O)(=O)N2CCOCC2)cc1C(=O)N1CCN(S(=O)(=O)c2cccc(F)c2)CC1", "Potency": "inconclusive [inhibitor, single point]"}, {"smiles": "C/C(=N\\N(c1ccccc1)c1ccccc1)c1ccc(O)cc1", "Potency": "inconclusive [inhibitor, partial curve]"}, {"smiles": "CC(C)c1ccc(NC(=O)c2ccc(NC3=NC4CS(=O)(=O)CC4S3)cc2)cc1", "note": "(centres undefined)", "activity change, negative = inhibition": "inactive: -9.72%"}, {"smiles": "CCOc1ccc(CC(=O)Nc2c(C(N)=O)oc3ccccc23)cc1OCC", "Potency": "inconclusive [inhibitor, single point]"}, {"smiles": "COc1ccc(C(C(=O)NC2CCCCC2)N(C(=O)c2ccco2)c2ccccc2OC)cc1", "note": "(centres undefined)", "Potency": "inconclusive [inhibitor, partial curve, poor fit]"}, {"smiles": "CC(Nc1ccc(Br)cc1)C(=O)Nc1cccc(S(=O)(=O)N2CCOCC2)c1", "note": "(centres undefined)", "Potency": "inconclusive [inhibitor, partial curve, poor fit]"}, {"smiles": "O=C(c1ccc(NS(=O)(=O)c2cccc(C(F)(F)F)c2)cc1)N1CCCC1", "activity change, negative = inhibition": "inactive: -0.412%"}, {"smiles": "NS(=O)(=O)c1ccc(CNC(=O)c2sccc2-c2ccccc2)cc1", "activity change, negative = inhibition": "inactive: -9.19%"}, {"smiles": "Cc1cc(C(=O)COC(=O)c2ccc(Br)o2)c(C)n1Cc1ccco1", "activity change, negative = inhibition": "inactive: 72%"}, {"smiles": "CCNC(=O)COc1ccc2ccccc2c1", "activity change, negative = inhibition": "inactive: 82.6%"}, {"smiles": "CC(C)C[C@H](NC(=O)c1[nH]cnc1C(=O)N[C@@H](Cc1ccccc1)C(=O)OC(C)(C)C)C(=O)OCc1ccccc1", "Potency": "inconclusive [inhibitor, partial curve]"}, {"smiles": "Cc1noc(C)c1COC(=O)/C=C/c1ccc(Cl)cc1", "Potency": "inconclusive [inhibitor, partial curve]"}, {"smiles": "CCN=C1S/C(=C\\c2cc(OCC)c(O)cc2Br)C(=O)N1CC", "Potency": "active: 11.7 µM"}, {"smiles": "COC(=O)[C@H](Cc1ccccc1)NC(=O)NCCc1ccc(OC)cc1", "activity change, negative = inhibition": "inactive: 11.8%"}, {"smiles": "Fc1ccc(-c2csc3ncnc(N4CCN(c5ccccc5)CC4)c23)cc1", "Potency": "active: 11.7 µM"}, {"smiles": "O=[N+]([O-])c1cccc(S(=O)(=O)c2ccc(NCCOCCO)c([N+](=O)[O-])c2)c1", "Potency": "inconclusive [inhibitor, full curve]"}, {"smiles": "Cc1cc(Nc2cccc(Cl)c2)nc(NCc2ccccc2)n1", "Potency": "active: 0.738 µM"}, {"smiles": "Cc1ccc(-c2cc(-c3cccc(F)c3)n[nH]2)c(O)c1", "Potency": "inconclusive [inhibitor, single point]"}, {"smiles": "O=c1[nH][nH]c(-c2ccccc2)c1C=Nc1ccc(C(F)(F)F)cc1", "Potency": "inconclusive [inhibitor, full curve, poor fit]"}, {"smiles": "O=C(NCCCN1CCCC1=O)c1cccc(NS(=O)(=O)c2ccc(Br)cc2)c1", "Potency": "inconclusive [inhibitor, partial curve, poor fit]"}, {"smiles": "O=C1OC(CC(=O)N(Cc2nnc(-c3ccccc3Cl)o2)C2CC2)c2ccccc21", "note": "(centres undefined)", "Potency": "inconclusive [inhibitor, partial curve, poor fit]"}, {"smiles": "Clc1ccc(C(CCN2CCCC2)Cc2ccccc2)cc1", "note": "(centres undefined)", "Potency": "inconclusive [inhibitor, partial curve, poor fit]"}, {"smiles": "Cc1c(C)c2ccc(OCC(=O)Nc3ccc(N4CCC(C)CC4)cc3)cc2oc1=O", "Potency": "inconclusive [inhibitor, partial curve, poor fit]"}, {"smiles": "CN(C)NC(=O)c1ccc([N+](=O)[O-])s1", "Potency": "active: 10.4 µM"}, {"smiles": "Cn1c(=O)c2c(ncn2CCOc2ccc(F)cc2)n(C)c1=O", "activity change, negative = inhibition": "inactive: 2.16%"}, {"smiles": "CCn1c(C)[n+](CC)c2ccc(C(=O)N(C)c3ccccc3)cc21", "activity change, negative = inhibition": "inactive: -17.5%"}, {"smiles": "Clc1ccc(CSc2nnc(-c3ccncc3)o2)c(Cl)c1", "Potency": "inconclusive [inhibitor, single point]"}, {"smiles": "Cc1ccc2nc(N3C(=O)CNC3=S)sc2c1", "Potency": "inconclusive [inhibitor, single point]"}, {"smiles": "O=C(CC1NCCc2ccccc21)Nc1cccc(Cl)c1", "note": "(centres undefined)", "Potency": "inconclusive [inhibitor, single point]"}, {"smiles": "CC(C)c1ccc(S(=O)(=O)N2CCN(C(=O)CCNC(=O)Nc3ccccc3)CC2)cc1", "Potency": "active: 11.7 µM"}, {"smiles": "CN(C(=O)CSc1nnc(-c2c[nH]c3ccccc23)n1C1CC1)C1CCS(=O)(=O)C1", "note": "(centres undefined)", "activity change, negative = inhibition": "inactive: -11.5%"}, {"smiles": "O=C(NC1CCCC1)C1CCN(S(=O)(=O)c2ccccc2)CC1", "Potency": "inconclusive [inhibitor, single point]"}, {"smiles": "CC(C)C[C@H](NC(=O)c1nc[nH]c1C(=O)NCC(=O)OCc1ccccc1)C(=O)OCc1ccccc1", "Potency": "active: 4.65 µM"}, {"smiles": "c1ccc(CCN(Cc2ccccc2)Cc2nc(C3CC3)no2)cc1", "Potency": "inconclusive [inhibitor, partial curve]"}, {"smiles": "CC1CN(C(=O)Nc2ccccc2)c2ccccc2-[n+]2ccsc21", "note": "(centres undefined)", "activity change, negative = inhibition": "inactive: -3.99%"}, {"smiles": "Cc1ccc(C(=O)Nc2ccccc2C(=O)NCc2ccccc2)cc1", "Potency": "inconclusive [inhibitor, single point]"}, {"smiles": "N#C/C(=C\\c1c[nH]c2ccccc12)C(N)=O", "activity change, negative = inhibition": "inactive: 28.3%"}, {"smiles": "CCN(Cc1ccccc1)S(=O)(=O)c1c(C)[nH]c(C)c1C(=O)N1CCCCC1", "Potency": "inconclusive [inhibitor, single point]"}, {"smiles": "COCc1nc2ccccc2n1Cc1ccccc1Br", "Potency": "inconclusive [inhibitor, full curve, poor fit]"}, {"smiles": "CCOC(=O)C1=C(COC(=O)CCCOc2ccccc2)NC(=O)NC1C", "note": "(centres undefined)", "Potency": "inconclusive [inhibitor, partial curve, poor fit]"}, {"smiles": "Cc1ccc(O)c(NC(=O)C2CCCCC2)c1", "activity change, negative = inhibition": "inactive: -0.0685%"}, {"smiles": "COc1ccc(-c2csc3ncnc(N4CCN(Cc5ccccc5)CC4)c23)cc1", "Potency": "inconclusive [inhibitor, partial curve]"}, {"smiles": "C=CCOc1ccc(CNn2cn[nH]c2=S)cc1", "activity change, negative = inhibition": "inactive: 36.8%"}, {"smiles": "CCOC(=O)N1CCN(C(c2ccc(Cl)cc2)c2sc3nc(C)nn3c2O)CC1", "note": "(centres undefined)", "Potency": "inconclusive [inhibitor, single point]"}, {"smiles": "CC/C(=N\\NC(=O)c1nnn(-c2nonc2N)c1-c1ccc2c(c1)OCO2)c1ccccc1", "Potency": "inconclusive [inhibitor, single point]"}, {"smiles": "CCSc1ccc([C@@H]2[C@H]3C(=O)N(C)C(=O)[C@H]3[C@]3(C(=O)OC)CCCCN23)cc1", "Potency": "active: 11.7 µM"}, {"smiles": "COc1cc(-c2nc3ccccn3c2NCC2CCCO2)ccc1O", "note": "(centres undefined)", "activity change, negative = inhibition": "inactive: 6.15%"}, {"smiles": "CC(C)CNC(=O)c1ccccc1NC(=O)CN(c1ccccc1)S(=O)(=O)N(C)C", "Potency": "active: 10.4 µM"}, {"smiles": "O=C(CN1CCN(Cc2ccccc2Cl)CC1)N/N=C/c1cccs1", "Potency": "inconclusive [inhibitor, single point]"}, {"smiles": "Oc1ccc(Nc2ncnc3scc(-c4ccccc4)c23)cc1", "activity change, negative = inhibition": "inactive: -23.6%"}, {"smiles": "O=C(COc1ccc(Cl)cc1)N1CCN(Cc2ccc([N+](=O)[O-])cc2)CC1", "Potency": "inconclusive [inhibitor, partial curve, poor fit]"}, {"smiles": "COc1ccc(CN(CCC#N)CCC2(c3ccccc3)CC(C)N(C)CC2C)cc1OC", "note": "(centres undefined)", "Potency": "inconclusive [inhibitor, single point]"}, {"smiles": "COC(=O)C1=C(NC(=O)C2CCCCC2)CCS1", "Potency": "inconclusive [inhibitor, single point]"}, {"smiles": "COc1ccc(NC(=O)CCNS(=O)(=O)c2ccc(NC(C)=O)cc2)cc1Cl", "Potency": "inconclusive [inhibitor, single point]"}, {"smiles": "COc1ccc(NC(=O)CN2CCN(S(=O)(=O)c3ccc(C(C)C)cc3)CC2)cc1OC", "Potency": "inconclusive [inhibitor, single point]"}, {"smiles": "Cc1ccc(S(=O)(=O)N2CC3CCCN3c3ccc(C(F)(F)F)cc32)cc1", "note": "(centres undefined)", "Potency": "active: 10.4 µM"}, {"smiles": "O=C(Nc1ccc2c(c1)OCO2)c1ccc2c(c1)OCO2", "activity change, negative = inhibition": "inactive: 275%"}, {"smiles": "CC(C)C1=CC2=CCC3C(C)(C(=O)O)CCCC3(C)C2CC1", "note": "(centres undefined) (tested in a mixture with another compound)", "Potency": "inconclusive [inhibitor, partial curve, poor fit]"}, {"smiles": "Cc1cc(C)n(-c2cc(C(C)(C)C)nc3c(-c4ccc(Cl)cc4)cnn23)n1", "Potency": "inconclusive [inhibitor, partial curve, poor fit]"}]}]}
